From publication PMC12136788
The other results are listed elsewhere or left out.

T1: UNK ZnF1-3 (human, UniProt Q9C0B0 31-174)
T1 sequence: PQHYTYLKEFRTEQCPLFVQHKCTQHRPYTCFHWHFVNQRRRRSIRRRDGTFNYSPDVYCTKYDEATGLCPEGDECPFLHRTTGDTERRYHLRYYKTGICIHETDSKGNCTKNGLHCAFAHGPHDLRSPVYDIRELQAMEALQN

B1: chr18:33598288:33598289:-_ENSMUSG00000042834_ENSMUST00000171533|mus_mus|motif|central (ssRNA)
RNA: GGGAGUUCUACAGUCCGACGAUCAGUCAGAAUGAUUAAAAACUGGUUUGAUGAAACCUAUUUGUCCACUGUAAAUUCUCGGAAGCCAGGCUUAGAGUCCCAUAGUUUCUUCUUAUAGUUGAUGAUUUACACAGAAAAAAAAAACAACAGAGGAUUGAGCAUCA
B2: chr10:121586544:121586545:+_ENSG00000198825_ENST00000369080|hu_mus|FALSE|FALSE (ssRNA)
RNA: GGGAGUUCUACAGUCCGACGAUCCGACUGCCUAAUCGAGGUGCUGACACAAUAAUCCCACAGCUUGGGAGAAUGUAAUCUAUUGGCCCUACGCUCUCUAAAGAAUUGGCUAGCUGCUUGUCUUCCUCCGACUUAGAAUUUGUACAACAGAGGAUUGAGCAUCA
B3: 13605823_13605943_2776_CDS_ENSG00000038219_ENST00000040738|human|control|control (ssRNA)
RNA: GGGAGUUCUACAGUCCGACGAUCUGUUCGUCGUUUCUCCUUGUGAACAACCUCUUCUGGUUUCAAAUUACUAUCCAUGUUAGUGGAGUCCAUAUCACACUUAUCUUCCGAAUAACUUUCACUUCUUCUCUGUAAUGUGAUACCCAACAGAGGAUUGAGCAUCA
B4: chr2:183853844:183853845:-_ENSG00000061676_ENST00000360982|hu_mus|FALSE|FALSE (ssRNA)
RNA: GGGAGUUCUACAGUCCGACGAUCGUGAAUGUGGAAAACUUCAUCCCGAAAGAGAGAGAGGCAAGAGCUACUCUGAAGAGCUAGCUUCCAAAGGUUCAGUGCGGUAGCCUCCGUAUUUAGCAUCCCAUGGCACAGAAUAAAGCCCAACAGAGGAUUGAGCAUCA
B5: 86505474_86507168_1115_CDS_ENSMUSG00000032418_ENSMUST00000034989|mouse|control|control (ssRNA)
RNA: GGGAGUUCUACAGUCCGACGAUCUUUUGAGUCAACCAACCAUAUCUUCUUUCUAGCAUUCUCCUUUGAUAAACCUUCUUUCUCCAUGGCCAUAACAACCAAGUGAGCAAUCCCCAAGGCAGCCUCUCCAGCUCCCUGGAACAGCAACAGAGGAUUGAGCAUCA
B6: chr8:28149726:28149727:+_ENSMUSG00000031483_ENSMUST00000033873|mus_mus|FALSE|FALSE (ssRNA)
RNA: GGGAGUUCUACAGUCCGACGAUCCUGGAGCUAUUAACCCAAGGUAAUUUAUCUAGUGGUAUCAUUUAUGGAAUAAUUACUAUAACAAGAAUCAUUUCUCAGUUAUAAAGGCUCAUUAAUGCCCUUGGGGCACACUGAAAAAAUCAACAGAGGAUUGAGCAUCA
B7: chr3:179287964:179287965:+_ENSG00000136518_ENST00000429709|hu_hu|hu_hu_hu_mus_True|28_88 (ssRNA)
RNA: GGGAGUUCUACAGUCCGACGAUCCUUGAGUGGUGAGAUGGCCUCCAUAUUCUCCCUGGGCACGCGGAGGGCAUUGGUGUCUAUGUAGUAGGUGGGCCCGCCCUGCUUGCCUUUAUCACCAUCAAUCUCCAUCAUUGUACUUCCCAACAGAGGAUUGAGCAUCA
B8: chr2:31072873:31072874:+_ENSMUSG00000000194_ENSMUST00000056433|mus_hu|FALSE|FALSE (ssRNA)
RNA: GGGAGUUCUACAGUCCGACGAUCUACGUGAGUCUUACAAGGCCAGGGGCGGGUCAGAGAAAAGCAGCGGGGUGAAGUGUGGAGUGUGGAAGCAGGGGUGCAGCAGUGUGCUAGAUCUGUUUCCUUUGAAGUACAGCAGCUUGGCAACAGAGGAUUGAGCAUCA
B9: chr17:55916980:55916981:-_ENSG00000181610_ENST00000313608|hu_hu|FALSE|FALSE (ssRNA)
RNA: GGGAGUUCUACAGUCCGACGAUCUCACAUAACUGCUUCUGUCAAACCAUGAUACUGAGCUUUGUGACAACCCAGAAAUAACUAAGAGAAGGCAAACAUAAUACCUUAGAGAUCAAGAAACAUUUACACAGUUCAACUGUUUAACAACAGAGGAUUGAGCAUCA
B10: chr9:37441256:37441257:-_ENSG00000168795_ENST00000307750|hu_mus|FALSE|FALSE (ssRNA)
RNA: GGGAGUUCUACAGUCCGACGAUCUGGCCCAGCCUCUGGACUCAACAGAUAAGGGGCCUCGCCCUCGAGCCUACAGUCACUGGUGGUGUUUGGGAGGUUGUCGUCAGUGCUCUGACUUGCACUGAAAUUACUCCCCCUGCUCUUCAACAGAGGAUUGAGCAUCA
B11: chr1:39333270:39333271:-_ENSG00000214114_ENST00000397572|hu_mus|motif|central (ssRNA)
RNA: GGGAGUUCUACAGUCCGACGAUCUUCUGCCAAUUCUAGGCGAAGCAGCUCUAUUUCUGGGUUUUCCGGGGUAGCAGCUCCGGAGUGAUGCUUUAAAAAAUCCAGAGCACUGGUGGGCUUCUCUGGUUCUUCAUAUAAGGCUACCAACAGAGGAUUGAGCAUCA
B12: 192194736_192206287_480_CDS_ENSG00000128641_ENST00000304164|human|control|control (ssRNA)
RNA: GGGAGUUCUACAGUCCGACGAUCCAGGACCGGGUUGGACUGUAAAAGCUGUUCUUUAACUUGAUUAACUUCUGCUCCUUUUCCACAAACAGCUGCCACAUAGGACAUGACAAGCUUACUGGCCUCUGUUUUUCCUGCUCCACUCAACAGAGGAUUGAGCAUCA
B13: 155451795_155451915_1284_3pUTR_ENSG00000116539_ENST00000392403|human|control|control (ssRNA)
RNA: GGGAGUUCUACAGUCCGACGAUCUCCCAGGAUCUUUAGUUACCAAUCCAACUGCUGUGCUGAUGGUUGGCUUUUUUAUUAAGUCCUUAUGUAUUAUUCCAGCUACAGAGCCAACACCUGCUUUCCUGAUCAAAUCCUUGCUAACAACAGAGGAUUGAGCAUCA
B14: chr19:7501953:7501954:-_ENSMUSG00000024758_ENSMUST00000025667|mus_mus|FALSE|FALSE (ssRNA)
RNA: GGGAGUUCUACAGUCCGACGAUCCGGAAGAAAUCCCACUCUUGCCCCAUACUAUUUAUUCAUAAGUUAAUCAUUAUUUCCUAACUUAAAAAUAAGGGCAAAAUUAUAAAUGGGAGCUGUAUACGAGUCCUUGGAACUGGAGAGCAACAGAGGAUUGAGCAUCA
B15: chr8:117878989:117878990:-_ENSG00000164754_ENST00000297338|hu_hu|hu_hu_hu_mus_True|48_98 (ssRNA)
RNA: GGGAGUUCUACAGUCCGACGAUCCCAGAGGCCCUCGUUUACUGAGAACAAAAUGUGCGUAGAACAUUUUUCUUAUUUGCUAUGAAAACAGAAGAAACCUGGAUCUCGGCGGGGAGCCGGGAGGGGUGGGUGGCCCGGGGAGGGCAACAGAGGAUUGAGCAUCA
B16: chr21:34923711:34923712:+_ENSG00000159140_ENST00000381679|hu_mus|FALSE|FALSE (ssRNA)
RNA: GGGAGUUCUACAGUCCGACGAUCCAUCUGAGAAUCCAUAGUGUUGGAUGCUAGCAUCUGGGAGUCCAUGGUAUUGGAUGCUAACAUAUGGGUCUCCAUGGUGUUAGAAGCUAGCAUAUGGGAUUCUUGGGCCAUCAAGGGGUCCAACAGAGGAUUGAGCAUCA
B17: chr19:8871807:8871808:-_ENSMUSG00000071662_ENSMUST00000096261|mus_hu|FALSE|FALSE (ssRNA)
RNA: GGGAGUUCUACAGUCCGACGAUCCACGACCUCCCCUUUAAAUGGCCGGAAAACAAUGGCCUUGUACUUAACUGGAUAAAGGACAAAGCCUCGGCCUGGCUGGAUCACACCAGCACCAAUAUUGUCAAUGGUGGUGACAGCAAUCAACAGAGGAUUGAGCAUCA
B18: chr12:118673417:118673418:-_ENSG00000135090_ENST00000392533|hu_hu|motif|central (ssRNA)
RNA: GGGAGUUCUACAGUCCGACGAUCAGGUGUGCCCACGAAGGAGUUGGCAGGAGAAGCCAUUGAAGCAGAUCCAAAAUCAGCGGGUUUUACCUGACCUGGCUCUGUUAGAAGAAUAUUUCCUGCUUUAAUAUCCCUAUGAAUCAACAACAGAGGAUUGAGCAUCA
B19: 24911559_24912643_785_3pUTR_ENSMUSG00000006476_ENSMUST00000102931|mouse|control|control (ssRNA)
RNA: GGGAGUUCUACAGUCCGACGAUCCCAGGUACGGAUGGGGACAUCAUCAGACACUCCAUCAACGCUAUACAUCCUUUCCAGCUUCUUGUGGCGGCCAGGAGCCUCAGGUAGAGGUGGCUGCUCCAGCCCAAAGGCCCGAGAAGACAACAGAGGAUUGAGCAUCA
B20: chr17:60770872:60770873:+_ENSG00000011028_ENST00000303375|hu_hu|hu_hu_hu_mus_True|1_98 (ssRNA)
RNA: GGGAGUUCUACAGUCCGACGAUCUCUUUAAAAAAAAUUCCUUUUUUACAAACAAUAAUAGCACAUUUCGAGAAUCAAGAACUACAAUAGAGGGUCCGCUUUGAGUUUUUGUUCACAUCGUCCUGCACUGGGACACGACCAGGACAACAGAGGAUUGAGCAUCA
B21: 44549918_44550445_1859_CDS_ENSG00000138078_ENST00000409411|human|control|control (ssRNA)
RNA: GGGAGUUCUACAGUCCGACGAUCAGUAUAACUUACAAUUCCUUUCAGAGGUACCCGUUCAUCGUUUUCAUAUGCCGUUAUGUGAAUUGAAGGAUAAUGCUGAGGUUUAAUAUUUUGAUAGGGACAGUAACGUUUUAUGUAGUUCAACAGAGGAUUGAGCAUCA
B22: 54633415_54633535_2776_3pUTR_ENSG00000094916_ENST00000209875|human|control|control (ssRNA)
RNA: GGGAGUUCUACAGUCCGACGAUCAGGCCUUUAAUUCCUUCAGAGAGAGAAGGAAUAUAGAGAUAAAACUCCCACCCACUUGAGGUAUGGUUUAUGAGCUCUUGCCCAAUCACAUUACCAUUCAGAAGGAUUUUCCUGGCUGACCAACAGAGGAUUGAGCAUCA

target: T1, UNK ZnF1-3; experiment: nsRBNS (natural sequence RNA bind-n-seq); RBNS binding buffer (assumed for nsRBNS): 25 mM Tris pH 7.5, 150 mM KCl, 3 mM MgCl2, 0.01% Triton X-100, 500 ug/ml BSA, 20 U/ml SUPERase-In, 4 C; UNK is unkempt and MSI1 is Musashi-1; names of the RNAs are library labels; protein concentration not given here; high values mean tight binding

Binder | binding signal [enrichment R]
B1 | 1.05
B2 | 1.39
B3 | 0.465
B4 | 1.56
B5 | 1.22
B6 | 0.948
B7 | 0.784
B8 | 1.93
B9 | 0.619
B10 | 0.39
B11 | 0.731
B12 | 0.716
B13 | 0.765
B14 | 0.803
B15 | 1.87
B16 | 1.08
B17 | 1.04
B18 | 0.664
B19 | 1.09
B20 | 1.21
B21 | 1.34
B22 | 0.903
